± gives the standard deviation of the averaged measurements. Some of the results follow.
Test system: PfAP2-G AP2 domain (GST-tagged)
Assay: gcPBM binding intensity (ln(normalized median fluorescence intensity)); higher = stronger DNA binding
Procedure, shortened: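 After 1 h on an Agilent 4 × 180k array of primer-extended double-stranded 36-bp intergenic genomic probes and negative controls, bound GST-tagged P. falciparum DNA-binding domains were detected with Alexa488 anti-GST antibody and scanned at 488 nm. The domains had been expressed in E. coli, and binding took place in 1× PBS with 1% milk, 0.2 mg/ml BSA, 0.5% salmon testes DNA and 0.03% Triton X-100. Binding intensity is the highest Masliner-normalised natural-log median intensity across replicate spots of either probe orientation.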

Row | Sequence | gcPBM binding intensity (ln)
1 | TTGTAACAAAAGTACACACACATTTCTATAAATTTT [CACACA_site2772] | 11.5 ± 1.1
2 | GTAAATATATATATATATATATATATATATATATAT [GTGCAC_negctrl_site239] | 9.96 ± 0.69
3 | TCTATACCTATTCTTACACACATATGTATTTATATA [CACACA_site4475] | 10.2 ± 0.042
4 | TTCTATGCATTTATAGTGCATGTAAAATATAAGATA [GTGCAC_site9466] | 9.98 ± 0.26
5 | AATTATATTTAGTATATGCACACTTTATGTTTGTTA [CACACA_site2025] | 9.88 ± 0.12
6 | GTAGAAAGAAAAATTAGTACTTAAATATTATAAAAA [XGTACX_site8458] | 11 ± 0.49
7 | CATATATATATATGAACACACAAAAAGAATATTTCC [CACACA_site1493] | 10.41 ± 0.092
8 | TTTAAAAAAAAAAAAAATTTTTTTTTTTTTTTTTTA [CACACA_negctrl_site1415] | 9.26 ± 0.2
9 | ATATATTTTTAATATGCACACAAGAATACATTCACA [CACACA_site914] | 10.2 ± 0.11
10 | TTAAAAAATCACAACACACACACACCCAAAAAAAAA [CACACA_site1445] | 10.3 ± 0.4
11 | GACTTTTTCATTTTTAGTACACATATATATTTCCCT [XGTACX_site3511] | 11.4 ± 0.73
12 | AAAAAAAAAAAACATACACACACACTAATATTTATA [CACACA_site8038] | 9.895 ± 0.021
13 | TTTTAAAAAATATAATAATATAAATATTTTATACGT [TGCATGCA_negctrl_site252] | 9.51 ± 0.33
14 | TGATAAATATTATGTTGTACTTTCTGCCCTTCACAT [XGTACX_site5168] | 11.3 ± 0.95
15 | TTTCCCATAGGAAAAACACACATATATTATAGATAA [CACACA_site7019] | 9.84
16 | TATGCTATTATATATGTACACACCAATTTATTTATA [CACACA_site3918] | 11.3 ± 0.74
17 | ATTATGCACGGACACACACACACACCCCTAAAAAAT [CACACA_site5426] | 11.2 ± 0.96
18 | TGTTAACCACAAAAATAAAATAAAATAAAAATAATA [XGTACX_negctrl_site535] | 9.94 ± 0.18
19 | AAAAAAAAAAAATAGAAAAAAAAATAAAATAAAAAA [CACACA_negctrl_site562] | 9.45 ± 0.042
20 | TGTATATAATTTATATGTACATATATTTTATTTTGT [XGTACX_site1905] | 11.4 ± 0.86
21 | GAGAGAGAAATATGCACACATAAGGGAAATAAATAA [CACACA_site1153] | 10.2 ± 0.27
22 | GAAAAAAAAAGTTAAGCACACACATGAATAAATAAT [CACACA_site8179] | 10.05 ± 0.099

Row | Sequence | gcPBM binding intensity (ln)
23 | TTTTGATGCTTTAAATGTACAAGGGTTCTTATGAAA [XGTACX_site831] | 10.6 ± 0.39
24 | AAACCAAAAATAACACGTACAAAAATAAAAAGTATA [XGTACX_site4261] | 11.2 ± 0.74
25 | AAAACATATTTTAAAAGTACTTGAAAAAAAATTTTC [XGTACX_site3940] | 11 ± 0.56
26 | AAAAAATTTGTTTATTGTACAGAAAGAATTATTATA [XGTACX_site6549] | 10.9 ± 0.6
27 | TTGTAGGTAAATATGTGTACGCATTATTATTCTTAA [XGTACX_site216] | 11.5 ± 0.94
28 | TTATACCTATATTTAACACACATTTGATAAAGTGCC [CACACA_site6732] | 9.76 ± 0.099
29 | TGGAGATTTTTAAAGACACACAGGTAAGAATAATAA [CACACA_site1582] | 10.01 ± 0.049
30 | AAAAAAAACAGACACATACACACAAAAATGTTATAA [CACACA_site82] | 10 ± 0.16
31 | ACCATTTTTATGTATAAACACACGTACCCGCACTAA [CACACA_site1604] | 11.3 ± 0.77
32 | GAGAGAGAAATAAAAAGTACATACATATATATACAT [XGTACX_site2267] | 11.5 ± 0.98
33 | AATATATAAATTGACACACACATATATACCTATATA [CACACA_site4803] | 10.065 ± 0.007
34 | AATATAAACACAAACACACACATATAGATTTATATA [CACACA_site6263] | 9.95 ± 0.028
35 | CACAATGGTTTATATACACACTGTTGCAAATTCTTC [CACACA_site5659] | 10.1 ± 0.11
36 | ATTCTTACTAATATCGCACACACATATGTAGACGGG [CACACA_site88] | 10.2 ± 0.15
37 | TATTTTTTATGATTAACACACACACTAATAAAAAAA [CACACA_site9370] | 10.4 ± 0.4
38 | TATATATATATATATAGTACGCACACATAGTTGCAA [XGTACX_site5875] | 11.1 ± 0.67
39 | AAAAAAAAAAAAAAAAGTACAAAAAGGAGAAAGATA [XGTACX_site7862] | 11.4 ± 0.95
40 | ATTTTTTTATTTTTGTGTACTTATAAGAATATTAAT [XGTACX_site4850] | 11.7 ± 1.1
41 | AATGAATATATTTATTGTACATATATGAATATTGCA [XGTACX_site8689] | 11.2 ± 0.66
42 | AATATTTAAAACATATGTACTGAAAAACAATTGGAC [XGTACX_site6360] | 11.1 ± 0.57
43 | CACAAAGGTCTGAAATTTTAGGGGTGCCTGGGACTA [CACACA_negctrl_site681] | 10.4 ± 0.34
44 | ACCCAGTGTATTCATAGTACACGCTCATATATTATC [XGTACX_site423] | 11.1 ± 0.47

Row | Sequence | gcPBM binding intensity (ln)
45 | AGGTTTATAAAAAAAAAAAAAAAAAAAAAAAAAAAA [GTGCAC_negctrl_site113] | 9.62 ± 0.26
46 | AAAATGTATGTAGTCTGTACAAATACTCTATAAATA [XGTACX_site6475] | 10.8 ± 0.5
47 | TACAATTTTACTCATAAACACACATATATATGTTAT [CACACA_site9031] | 10.01 ± 0.057
48 | AACAAGTTGCATGGTGCACACATGTATATATATCTA [CACACA_site2548] | 10.4 ± 0.4
49 | TATATATATATATGTGCACACCAATTGTATGTAATA [CACACA_site3888] | 10.6 ± 0.42
50 | TCATAAAAGATTAAGTGTACATGTGCTACTCTTATA [XGTACX_site6255] | 11.2 ± 0.79
51 | AATATAAAATCAAGAAATTAAAAAAAAACAGAAAAC [CACACA_negctrl_site1004] | 9.915 ± 0.007
52 | ACAAGATAATAGAGAAGTACTAATAAACATACACAA [XGTACX_site6617] | 11.1 ± 0.77
53 | ATAATATAAATTAATTTACACACTAATAAATATATA [CACACA_site9259] | 9.98 ± 0.23
54 | TATGTTCCTTTTTGTTGTACTGAAAAATTATGTTCA [XGTACX_site3981] | 11.5 ± 0.88
55 | ATTTTAAATTTATCTGTGCACAGTATTATATAAGCA [GTGCAC_site9806] | 10.4 ± 0.21
56 | TATTTATATTTATATACACACATACATATTTATATT [CACACA_site6535] | 9.915 ± 0.007
57 | TTATATTAATAAAAAGAAAATCATTTTTTCTTTTAT [CACACA_negctrl_site1595] | 9.71 ± 0.19
58 | ATATATATATTTATATTTATATGTAAATATCAACGT [TGCATGCA_negctrl_site32] | 9.96 ± 0.4
59 | TATTTTGTAATAATTACACACGGAATTATAACAGAA [CACACA_site2355] | 10.1 ± 0.27
60 | TCTTAATTTGTTATATGTACATAATATAATTGTATA [XGTACX_site5184] | 11.3 ± 0.77
61 | TTAAACTTGTTTTGGATGCACTATATAATTCATTTT [GTGCAC_site9549] | 9.815 ± 0.021
62 | ATTAAAATAATTTAATTTCTTAGACACAATTTGTAA [GTGCAC_negctrl_site331] | 9.84 ± 0.18
63 | GTGTAAAGGTATTATTGTATTATTCAAAATAAAAAA [CACACA_negctrl_site637] | 10.3 ± 0.45
64 | TCCTACATATTATAGTGTACATTTTCATGTTCATAT [XGTACX_site4308] | 11.2 ± 0.6
65 | AAGTATTATATATTTTGTACATATATAAAACCACAA [XGTACX_site5508] | 10.9 ± 0.57
66 | ATTGTGTTAATGAAATGTACATTTTCTCTACGTTAA [XGTACX_site1322] | 10.8 ± 0.47

Row | Sequence | gcPBM binding intensity (ln)
67 | AATATTATGTATAACCGTACATTATATATATAATAA [XGTACX_site1594] | 10.5 ± 0.35
68 | TATAAAAATATTTCTACACACATTAATATATATATA [CACACA_site1150] | 9.93 ± 0.27
69 | AATACTATTATTATTGCACACTTATTATCCCTCGGA [CACACA_site4262] | 10 ± 0.18
70 | TATCCATTTCTTTATGTGCACATTAAATATATTTGT | 10.6 ± 0.2
71 | TATTTTTTCTTTCATTGTACTTTTTTTTTGTTTTGT [XGTACX_site4081] | 11.4 ± 0.85
72 | AATGAGAAATATAATTGTACATATATTTATTTTCAT [XGTACX_site3669] | 11 ± 0.45
73 | ATTTGTAAAAAATTCATACACACGTCTTATTTTTAA [CACACA_site1390] | 9.96 ± 0.014
74 | AATATATAGAGAGATATGCACACTGTATGAATGCAC [CACACA_site2677] | 9.84
75 | TATATTAATAATAAGTGTACATATATATATATTTTT [XGTACX_site288] | 11.3 ± 0.81
76 | AAACAAAAAATTTAAAGTACAAAAATTATGATTGTT [XGTACX_site465] | 10.9 ± 0.57
77 | AAAAAATTAATATTGACACACATTTTTAAGAATAAT [CACACA_site239] | 10.1 ± 0.16
78 | TTTTTTTTTTTTTTTTTTTTTTTATCTATTATTTAT [XGTACX_negctrl_site496] | 9.59 ± 0.57
79 | CAAAAGGATAGGCACACACACACACCCATATATATA [CACACA_site2199] | 10.2 ± 0.2
80 | AATATGTCTATATTTTTTATATGGAAATATTATAAA [GTGCAC_negctrl_site700] | 9.93 ± 0.13
81 | TAAAAGGAAAAAAAAGCACACACAATATTACTTGAA [CACACA_site8831] | 10 ± 0.14
82 | TATCAAAATTAGTATACACACAAAATTATTCAAATA [CACACA_site2232] | 10 ± 0.23
83 | TATACATATAAATTGTGTACACATATATATATATTT [XGTACX_site7875] | 11.6 ± 0.92
84 | CTTTTTACTTAATACACACACACACTAGAAAAAAAA [CACACA_site4680] | 10.4 ± 0.42
85 | AATATATAAATTAATACATGCACATATAGAAAGGGA [TGCATGCA_site472] | 10.2 ± 0.28
86 | AATATAGTCACACATACACACATATAGATTTATATA [CACACA_site7223] | 10.1 ± 0.2
87 | TTTTGTTGCTCTTTTTTTTTTTTTTTTAACTGTATG [CACACA_negctrl_site1072] | 9.945 ± 0.064
88 | CTTTTCTTTTTTTTTTGTACATAAAATTATTCCTTA [XGTACX_site3924] | 11.1 ± 0.73

Source: the supplement of paper PMC11417369
